In PubChem BioAssay AID1745853 (National Center for Advancing Translational Sciences (NCATS), 2022):
Some of the results follow. These are further read-outs of the screen, such as a control signal, another cell line or another target. No call is given for them.

Columns and labels:
Experiment in all cases: Primary Screen for Target Class Profiling of Small Molecule Inhibitors of Methyltransferases
[1] = target: Glycine N-methyltransferase (Homo sapiens) (UniProt Q14749); conditions: purified enzyme, MTase-Glo SAH luminescence; measured here: GNMT inhibition; at 40 µM; stronger effect = lower value
How it was run: (§1)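 Each enzyme was reacted with SAM and its substrate, with compounds tested once at 40 uM; SAH formed was read by MTase-Glo luminescence.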

[2] = target: Guanidinoacetate N-methyltransferase (Homo sapiens) (UniProt Q14353); conditions: purified enzyme, MTase-Glo SAH luminescence; measured here: GAMT inhibition; at 40 µM; stronger effect = lower value
How it was run: as §1

[3] = target: Histamine N-methyltransferase (Homo sapiens) (UniProt P50135); conditions: purified enzyme, MTase-Glo SAH luminescence; measured here: HNMT inhibition; at 40 µM; stronger effect = lower value
How it was run: as §1

[4] = target: Nicotinamide N-methyltransferase (Homo sapiens) (UniProt P40261); conditions: purified enzyme, MTase-Glo SAH luminescence; measured here: NNMT inhibition; at 40 µM; stronger effect = lower value
How it was run: as §1

[5] = target: Phenylethanolamine N-methyltransferase (Homo sapiens) (UniProt P11086); conditions: purified enzyme, MTase-Glo SAH luminescence; measured here: PNMT inhibition; at 40 µM; stronger effect = lower value
How it was run: as §1
% is scaled to controls: 0 for no effect and ±100 for the full control effect.

SMILES | activity change, negative = inhibition [1] [%] | activity change, negative = inhibition [2] [%] | activity change, negative = inhibition [3] [%] | activity change, negative = inhibition [4] [%] | activity change, negative = inhibition [5] [%]
Cc1nc(-c2ccc(F)cc2)n(Cc2ccc(F)c(F)c2)c(=O)c1CCO | -3.62 | 1.76 | 3.4 | -11.8 | -2.23
Cc1cc(C(=O)N2C[C@@H](COCC3CC3)[C@H](c3ccccn3)C2)n[nH]1 | -3.38 | 0.719 | 1.85 | -5.38 | 10.3
COc1cc2c(cc1O)C1(OC)Cc3ccc4c(c3C1N(C)CC2)OCO4 (stereo not drawn) | 0.392 | 1.51 | 6.09 | -12.5 | -5.3
CC(C)(C)c1nn2c(SCC(=O)Nc3ccc(F)cc3)nnc2[nH]c1=O | -3 | 8.29 | -4.76 | -10.8 | -6.41
O=C(c1ccccc1)N1CCC2(CC1)C(=O)NN=C2c1ccccn1 | -6.2 | -5.71 | -2.19 | -15.8 | -3.35
Cc1cc(OCc2nc(-c3ccccc3Cl)cs2)ccc1OCC(=O)O | -18.8 | -9.67 | 6.64 | -34.2 | -1.65
CCOc1ccc(CN2C(=O)c3cc4occc4n3CC2(C)C(=O)NC2CCCCC2C)cc1 (stereo not drawn) | 5.61 | 1.99 | 6.18 | 5.71 | 0.668
CCC[C@@H]1C[C@@H](C(=O)N[C@@H]([C@H]2O[C@H](SC)[C@H](O)[C@@H](O)[C@H]2O)[C@@H](C)O)N(C)C1 |  | 9.39 |  | -4.56 | 4.12
CC1(C(=O)NC2CCCCCC2)Cn2nc(C3CC3)cc2C(=O)N1Cc1ccc2c(c1)OCO2 (stereo not drawn) | 0.362 | 0.911 | 4.96 | -9.96 | 0.473
Cc1cccc(CSc2nnc3n(C)c(=O)c4ccc(C(=O)NC5CCCCC5)cc4n23)c1 | -0.654 | 4.38 | 5.32 | 4.88 | 3.7
Cc1ccc(C)c(N2CCN(C(=O)CN(C)S(=O)(=O)c3ccc4[nH]c5c(c4c3)CCCC5)CC2)c1 | 3.77 | 0 | 4 | 4.14 | 3.54
N#Cc1c(Oc2ccc(F)c(NC(=O)Cc3cccc(C(F)(F)F)c3)c2)ccc2nc(NC(=O)C3CC3)sc12 | 1.24 | -22.5 | 4.73 | -29.5 | -13.5
CCC(C(=O)NCc1ccc(OC)cc1)n1ccc2cc(S(=O)(=O)N3CCCCC3)ccc21 (stereo not drawn) | 2.33 | 3.93 | 3.56 | 0.197 | 0.589
CCCN1C(=O)c2c(C(=O)NCc3ccc(C)cc3)ncn2CC1(C)C(=O)NC1CCCC1 (stereo not drawn) | 3.47 | 0 | 1.29 | 3.44 | 6.98
CCOc1ccc(CN2C(=O)c3ccc(-c4ccccc4)n3CC2(C)C(=O)NC2CCCC2)cc1 (stereo not drawn) | -4.95 | 2.19 | -1.74 | -1.62 | -0.45
Cc1cccc(NC(=O)Cn2c(=O)oc3cc(S(=O)(=O)NCc4ccccc4)ccc32)c1 | -6.23 | 1.13 | 3.99 | 5.57 | -5.72
CO[C@H]1C[C@@H]2CC[C@@H](C)[C@@](O)(O2)C(=O)C(=O)N2CCCC[C@H]2C(=O)O[C@H]([C@H](C)C[C@@H]2CC[C@@H](OC(=O)C(C)(CO)CO)[C@H](OC)C2)CC(=O)[C@H](C)/C=C(\C)[C@@H](O)[C@@H](OC)C(=O)[C@H](C)C[C@H](C)/C=C/C=C/C=C/1C | 1.55 | 17.8 | 4.56 | 0.736 | 5.4
CCN(CC)CCCNC(=O)CCc1nnc2n(Cc3ccccc3)c(=O)c3ccccc3n12 | -4.2 | 0 | -36.4 | 8.95 | 2.35
CC(C)CNC(=O)c1ccc2c(=O)n(CC(C)C)c3nn(CC(=O)Nc4ccccc4)c(=O)n3c2c1 | 9.77 | 2.36 | 11.7 | 7.39 | 8.24
